From PMC5722342
These are yes or no findings as the source states them, for the method shown. Binding seen in cells or lysates may run through a third protein. Some results given as binding are weak or reduced against the parent protein; the word gives no strength.

By UniProt entry, the sequences of proteins in these tests, tags left out.
UniProt Q96J02: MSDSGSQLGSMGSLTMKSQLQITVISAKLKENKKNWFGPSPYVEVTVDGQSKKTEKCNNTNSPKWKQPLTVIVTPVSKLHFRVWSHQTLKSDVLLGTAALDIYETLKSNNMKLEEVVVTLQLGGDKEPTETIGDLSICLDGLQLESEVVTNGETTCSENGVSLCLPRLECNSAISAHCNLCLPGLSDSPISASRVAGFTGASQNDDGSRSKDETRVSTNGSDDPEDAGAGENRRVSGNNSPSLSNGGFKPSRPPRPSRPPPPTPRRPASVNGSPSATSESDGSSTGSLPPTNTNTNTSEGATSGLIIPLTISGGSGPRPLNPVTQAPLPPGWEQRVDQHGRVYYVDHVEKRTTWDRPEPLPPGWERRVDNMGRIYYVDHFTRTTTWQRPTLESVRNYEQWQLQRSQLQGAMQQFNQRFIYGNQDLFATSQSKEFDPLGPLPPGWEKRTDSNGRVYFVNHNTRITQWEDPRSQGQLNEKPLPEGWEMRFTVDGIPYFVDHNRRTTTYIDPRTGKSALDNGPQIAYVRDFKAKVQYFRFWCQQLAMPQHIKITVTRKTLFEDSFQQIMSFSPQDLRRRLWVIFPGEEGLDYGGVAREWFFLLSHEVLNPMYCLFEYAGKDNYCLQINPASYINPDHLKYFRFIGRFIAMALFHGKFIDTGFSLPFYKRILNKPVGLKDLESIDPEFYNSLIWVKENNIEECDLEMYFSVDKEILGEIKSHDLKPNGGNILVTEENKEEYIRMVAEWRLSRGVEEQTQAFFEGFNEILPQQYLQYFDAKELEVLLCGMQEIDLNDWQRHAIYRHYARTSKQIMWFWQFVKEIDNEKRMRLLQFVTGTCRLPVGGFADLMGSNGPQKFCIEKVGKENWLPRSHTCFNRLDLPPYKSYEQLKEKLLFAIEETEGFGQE
UniProt Q9UKV5: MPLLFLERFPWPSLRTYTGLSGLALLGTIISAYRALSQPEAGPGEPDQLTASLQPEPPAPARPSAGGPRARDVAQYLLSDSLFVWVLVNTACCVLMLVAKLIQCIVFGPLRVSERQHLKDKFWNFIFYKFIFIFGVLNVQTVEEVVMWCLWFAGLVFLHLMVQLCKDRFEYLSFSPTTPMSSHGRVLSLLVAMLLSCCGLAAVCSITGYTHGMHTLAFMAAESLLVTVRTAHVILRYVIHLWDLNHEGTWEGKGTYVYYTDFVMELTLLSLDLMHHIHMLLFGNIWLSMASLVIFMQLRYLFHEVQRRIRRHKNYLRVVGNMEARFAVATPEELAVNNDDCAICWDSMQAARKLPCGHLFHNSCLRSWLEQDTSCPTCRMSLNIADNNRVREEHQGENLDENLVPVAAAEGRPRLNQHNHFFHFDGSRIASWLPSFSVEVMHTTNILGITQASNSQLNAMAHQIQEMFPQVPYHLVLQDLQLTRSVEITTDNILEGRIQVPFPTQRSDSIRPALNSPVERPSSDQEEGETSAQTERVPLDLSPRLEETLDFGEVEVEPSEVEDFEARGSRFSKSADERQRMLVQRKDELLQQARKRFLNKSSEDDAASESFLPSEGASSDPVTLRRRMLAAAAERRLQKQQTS
UniProt Q86TM6: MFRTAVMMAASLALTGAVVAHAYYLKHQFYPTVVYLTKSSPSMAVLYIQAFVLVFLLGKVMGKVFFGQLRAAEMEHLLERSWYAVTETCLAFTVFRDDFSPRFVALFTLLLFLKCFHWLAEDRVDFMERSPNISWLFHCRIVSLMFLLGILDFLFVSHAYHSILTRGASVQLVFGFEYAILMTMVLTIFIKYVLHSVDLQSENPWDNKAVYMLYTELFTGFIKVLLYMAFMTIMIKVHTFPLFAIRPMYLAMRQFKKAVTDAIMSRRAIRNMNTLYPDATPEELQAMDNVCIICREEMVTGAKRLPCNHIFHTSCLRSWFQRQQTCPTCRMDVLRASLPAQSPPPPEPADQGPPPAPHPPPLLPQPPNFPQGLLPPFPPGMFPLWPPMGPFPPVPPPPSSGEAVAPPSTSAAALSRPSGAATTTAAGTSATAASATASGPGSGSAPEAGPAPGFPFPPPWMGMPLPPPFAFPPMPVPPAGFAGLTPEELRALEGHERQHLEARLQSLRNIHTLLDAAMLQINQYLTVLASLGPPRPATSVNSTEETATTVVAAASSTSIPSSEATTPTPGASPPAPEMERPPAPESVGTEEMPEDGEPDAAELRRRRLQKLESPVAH
UniProt O14818: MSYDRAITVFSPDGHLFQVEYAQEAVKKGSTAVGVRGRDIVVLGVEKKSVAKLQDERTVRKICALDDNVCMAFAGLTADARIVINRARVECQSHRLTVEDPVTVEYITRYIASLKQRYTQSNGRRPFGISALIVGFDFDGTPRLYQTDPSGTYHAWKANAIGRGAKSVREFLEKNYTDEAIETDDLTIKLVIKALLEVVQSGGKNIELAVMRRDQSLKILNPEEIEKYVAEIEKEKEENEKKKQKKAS
UniProt Q9HCE7: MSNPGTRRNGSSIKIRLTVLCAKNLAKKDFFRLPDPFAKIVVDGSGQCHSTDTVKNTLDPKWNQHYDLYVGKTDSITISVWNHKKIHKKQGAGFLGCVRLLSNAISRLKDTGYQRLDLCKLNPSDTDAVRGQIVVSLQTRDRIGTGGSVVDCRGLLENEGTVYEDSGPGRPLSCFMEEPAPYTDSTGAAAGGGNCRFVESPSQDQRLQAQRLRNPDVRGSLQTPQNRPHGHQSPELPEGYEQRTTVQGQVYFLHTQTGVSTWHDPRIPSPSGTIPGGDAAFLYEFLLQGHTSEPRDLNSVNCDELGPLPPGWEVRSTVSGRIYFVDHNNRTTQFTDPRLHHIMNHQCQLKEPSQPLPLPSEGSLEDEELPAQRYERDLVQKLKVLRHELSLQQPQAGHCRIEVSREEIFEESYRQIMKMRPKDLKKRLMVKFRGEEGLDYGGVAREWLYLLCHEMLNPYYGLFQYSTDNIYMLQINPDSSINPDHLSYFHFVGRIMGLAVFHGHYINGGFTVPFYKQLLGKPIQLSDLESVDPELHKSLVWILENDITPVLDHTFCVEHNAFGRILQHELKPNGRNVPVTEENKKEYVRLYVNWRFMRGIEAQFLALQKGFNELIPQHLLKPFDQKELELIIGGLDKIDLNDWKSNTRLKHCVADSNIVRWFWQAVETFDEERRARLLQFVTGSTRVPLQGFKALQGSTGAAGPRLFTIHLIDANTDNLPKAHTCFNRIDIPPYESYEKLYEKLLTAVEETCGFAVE
UniProt Q14258: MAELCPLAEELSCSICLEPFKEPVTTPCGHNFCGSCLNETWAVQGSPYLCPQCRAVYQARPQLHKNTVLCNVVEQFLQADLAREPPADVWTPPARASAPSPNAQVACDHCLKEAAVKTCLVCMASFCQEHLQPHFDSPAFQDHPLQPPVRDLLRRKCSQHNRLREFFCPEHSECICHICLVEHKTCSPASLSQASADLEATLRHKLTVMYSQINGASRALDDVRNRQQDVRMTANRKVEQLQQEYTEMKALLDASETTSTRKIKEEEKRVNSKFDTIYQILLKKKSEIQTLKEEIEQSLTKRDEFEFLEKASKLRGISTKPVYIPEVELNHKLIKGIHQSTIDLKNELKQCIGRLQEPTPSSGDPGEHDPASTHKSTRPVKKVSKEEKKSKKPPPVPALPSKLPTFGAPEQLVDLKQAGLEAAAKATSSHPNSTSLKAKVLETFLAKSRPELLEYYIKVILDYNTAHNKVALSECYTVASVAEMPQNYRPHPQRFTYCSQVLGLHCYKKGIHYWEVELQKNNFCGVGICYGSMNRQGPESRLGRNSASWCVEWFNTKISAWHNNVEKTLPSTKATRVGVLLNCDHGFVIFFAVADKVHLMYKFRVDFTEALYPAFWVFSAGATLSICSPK
UniProt Q7Z434: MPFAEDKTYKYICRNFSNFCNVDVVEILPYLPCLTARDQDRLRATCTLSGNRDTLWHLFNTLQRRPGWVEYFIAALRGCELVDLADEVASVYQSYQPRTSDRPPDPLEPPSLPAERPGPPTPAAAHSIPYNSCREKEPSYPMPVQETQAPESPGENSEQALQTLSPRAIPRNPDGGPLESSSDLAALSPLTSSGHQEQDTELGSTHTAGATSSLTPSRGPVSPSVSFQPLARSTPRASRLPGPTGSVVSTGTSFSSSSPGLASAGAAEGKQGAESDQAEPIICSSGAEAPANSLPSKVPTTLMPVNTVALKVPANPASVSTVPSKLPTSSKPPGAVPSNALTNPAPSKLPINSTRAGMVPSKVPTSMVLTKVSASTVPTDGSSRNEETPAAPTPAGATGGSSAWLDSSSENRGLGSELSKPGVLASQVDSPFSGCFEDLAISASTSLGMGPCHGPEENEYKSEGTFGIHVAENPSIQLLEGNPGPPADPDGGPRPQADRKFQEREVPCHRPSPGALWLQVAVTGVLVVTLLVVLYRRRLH

Tests used:
AIP4 = AIP4 (UniProt Q96J02); assay: co-IP
GP78 = GP78 (UniProt Q9UKV5); assay: co-IP
HRD1 = HRD1 (UniProt Q86TM6); assay: co-IP
PSMA7 = PSMA7 (UniProt O14818); assay: co-IP
Smurf1 = Smurf1 (UniProt Q9HCE7); assay: co-IP
TRIM25 = TRIM25 (UniProt Q14258); assay: co-IP
VCP = VCP (UniProt P55072); assay: co-IP
IKKε = target: T1, IKKε (UniProt Q14164); assay: co-IP; HEK293 cells transfected with the indicated plasmids; NP-40 lysis buffer (20 mM Tris-HCl pH 7.4, 150 mM NaCl, 1 mM EDTA, 1% Nonidet P-40); immunoprecipitation and immunoblot with the indicated antibodies (Fig 4A, 4C)
T1 sequence: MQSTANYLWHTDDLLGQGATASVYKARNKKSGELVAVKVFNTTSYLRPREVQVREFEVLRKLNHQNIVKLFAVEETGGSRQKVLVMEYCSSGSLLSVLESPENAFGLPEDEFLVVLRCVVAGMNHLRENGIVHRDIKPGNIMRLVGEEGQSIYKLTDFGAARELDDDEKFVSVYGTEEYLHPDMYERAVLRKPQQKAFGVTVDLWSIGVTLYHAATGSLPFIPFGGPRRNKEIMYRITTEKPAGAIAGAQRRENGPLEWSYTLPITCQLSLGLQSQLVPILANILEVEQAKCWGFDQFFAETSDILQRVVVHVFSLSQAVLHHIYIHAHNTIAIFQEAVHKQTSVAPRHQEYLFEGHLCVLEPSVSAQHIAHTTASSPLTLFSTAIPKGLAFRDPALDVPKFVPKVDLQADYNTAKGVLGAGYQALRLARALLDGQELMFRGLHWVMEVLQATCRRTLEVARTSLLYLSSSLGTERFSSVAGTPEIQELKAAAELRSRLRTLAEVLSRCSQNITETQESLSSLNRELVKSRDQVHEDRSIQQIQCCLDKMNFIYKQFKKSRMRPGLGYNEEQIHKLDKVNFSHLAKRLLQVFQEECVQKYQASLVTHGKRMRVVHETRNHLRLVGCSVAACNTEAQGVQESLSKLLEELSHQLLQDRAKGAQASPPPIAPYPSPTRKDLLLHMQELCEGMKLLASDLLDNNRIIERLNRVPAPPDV

IRF3 = target: T2, IRF3 (UniProt Q14653); assay: as above
T2 sequence: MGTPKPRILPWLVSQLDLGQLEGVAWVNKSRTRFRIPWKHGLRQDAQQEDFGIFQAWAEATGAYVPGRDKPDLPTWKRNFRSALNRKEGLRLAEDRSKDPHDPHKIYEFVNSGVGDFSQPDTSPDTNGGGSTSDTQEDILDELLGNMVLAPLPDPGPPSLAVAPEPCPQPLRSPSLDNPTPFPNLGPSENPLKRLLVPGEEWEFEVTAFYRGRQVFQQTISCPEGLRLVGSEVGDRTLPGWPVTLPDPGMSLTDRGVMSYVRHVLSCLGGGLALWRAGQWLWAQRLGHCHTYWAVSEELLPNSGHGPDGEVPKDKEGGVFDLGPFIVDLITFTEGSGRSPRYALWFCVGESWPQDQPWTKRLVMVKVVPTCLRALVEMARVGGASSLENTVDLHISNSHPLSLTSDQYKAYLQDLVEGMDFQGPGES

VISA = VISA (UniProt Q7Z434); assay: as above

binding (AIP4): binds
binding (GP78): binds
binding (HRD1): no binding
binding (PSMA7): binds
binding (Smurf1): binds
binding (TRIM25): no binding
binding (VCP): binds
binding (IKKε): no binding
binding (IRF3): no binding
binding (VISA): binds
B1: inactive rhomboid protein 2 (iRhom2) (protein, UniProt Q6PJF5 1-856)
chain: MASADKNGGSVSSVSSSRLQSRKPPNLSITIPPPEKETQAPGEQDSMLPEGFQNRRLKKSQPRTWAAHTTACPPSFLPKRKNPAYLKSVSLQEPRSRWQESSEKRPGFRRQASLSQSIRKGAAQWFGVSGDWEGQRQQWQRRSLHHCSMRYGRLKASCQRDLELPSQEAPSFQGTESPKPCKMPKIVDPLARGRAFRHPEEMDRPHAPHPPLTPGVLSLTSFTSVRSGYSHLPRRKRMSVAHMSLQAAAALLKGRSVLDATGQRCRVVKRSFAFPSFLEEDVVDGADTFDSSFFSKEEMSSMPDDVFESPPLSASYFRGIPHSASPVSPDGVQIPLKEYGRAPVPGPRRGKRIASKVKHFAFDRKKRHYGLGVVGNWLNRSYRRSISSTVQRQLESFDSHRPYFTYWLTFVHVIITLLVICTYGIAPVGFAQHVTTQLVLRNKGVYESVKYIQQENFWVGPSSIDLIHLGAKFSPCIRKDGQIEQLVLRERDLERDSGCCVQNDHSGCIQTQRKDCSETLATFVKWQDDTGPPMDKSDLGQKRTSGAVCHQDPRTCEEPASSGAHIWPDDITKWPICTEQARSNHTGFLHMDCEIKGRPCCIGTKGSCEITTREYCEFMHGYFHEEATLCSQVHCLDKVCGLLPFLNPEVPDQFYRLWLSLFLHAGVVHCLVSVVFQMTILRDLEKLAGWHRIAIIFILSGITGNLASAIFLPYRAEVGPAGSQFGLLACLFVELFQSWPLLERPWKAFLNLSAIVLFLFICGLLPWIDNIAHIFGFLSGLLLAFAFLPYITFGTSDKYRKRALILVSLLAFAGLFAALVLWLYIYPINWPWIEHLTCFPFTSRFCEKYELDQVLH
